Measured values from the supplement of paper PMC11417369.
± gives the standard deviation of the averaged measurements. The list shows a part of the results.

Tested on: PfAP2-G AP2 domain (GST-tagged)
Assay: gcPBM binding intensity (ln(normalized median fluorescence intensity)); higher = stronger DNA binding
Summary of the method: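 In this array assay, P. falciparum DNA-binding domains with a GST tag, expressed in E. coli, were applied for 1 h to primer-extended double-stranded 36-bp intergenic genomic probes and negative controls on an Agilent 4 × 180k array. Bound protein was visualised with Alexa488 anti-GST antibody at 488 nm. Binding intensity is the highest Masliner-normalised natural-log median intensity across replicate spots of either probe orientation.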

Sequence | gcPBM binding intensity (ln)
CCCAAAAAATATCATAGTACTCAACATGACTACTAT [XGTACX_site7838] | 11 ± 0.41
ATAAAGATTAACAAAGTGCATTTATATATATAATCT [GTGCAC_site9407] | 9.81 ± 0.057
AAATAAAATAATAAAACATGCAAAAATAATGATTTA [TGCATGCA_site415] | 9.765 ± 0.035
CATGTGTGATAATGATGTACTATATTAAGCTAGTCC [XGTACX_site2690] | 10.9 ± 0.47
TATATACATATATATTGTACTTATTTTTATAATGTC [XGTACX_site3453] | 11.3 ± 0.89
ATTCTACGCACGCGCACACACAACAAAAAAAAAAAA [CACACA_site3538] | 10.8 ± 0.68
GTGATGGTACAATATACACACTTAAAAAAAAAAAAT [CACACA_site5360] | 10.8 ± 0.78
ATTTAATACAAATACACACACAAATAAATACAGATA [CACACA_site5956] | 10.3 ± 0.32
TTAAGGCATCAACATAGTACAATTTTTCTATAATAA [XGTACX_site1114] | 10.6 ± 0.4
TTTATTTCCTTTTTGTGTACATATATATGTAATTCA [XGTACX_site1718] | 11.4 ± 0.77
TTTATAATTCTTACAACACACAATGTACTTTTATAT [CACACA_site8340] | 11.3 ± 0.84
TATTATATAAAATATTTTATTATATCATCTTCTCTA [XGTACX_negctrl_site319] | 9.63 ± 0.18
GGTAATAATATGCATAGTACATAATATATATATATA [XGTACX_site6793] | 10.8 ± 0.64
AAGAAAAATAATTAGGGTGAAAATATATAGAGTAAA [TGCATGCA_negctrl_site590] | 9.79 ± 0.25
CAATTCTTAAGTTCTTGTACGAAAAACGACAATTTA [XGTACX_site3890] | 11 ± 0.66
ACACATATATATATATATATATATATATATATATAT [CACACA_negctrl_site1766] | 10.7 ± 0.76
GTATGTATGTATGTATGTACGTATTTATTTATTTAA [XGTACX_site726] | 11.5 ± 1
ATAATATAAATAATTATACACACTTAATATATATAT [CACACA_site2782] | 9.92 ± 0.028
TAAATGTGAAATTTTATATTTTATATAATATACAAT [CACACA_negctrl_site76] | 9.71 ± 0.23
AAGGATCACCCACAAACACACATATATATATATATA [CACACA_site559] | 10.3 ± 0.6
AACATAAGTAATATTTGTACATATATAATAATATAT [XGTACX_site5123] | 10.8 ± 0.56
AAAAATGGTGTTAACACACACATATAAATAAATATA [CACACA_site6412] | 9.765 ± 0.049
ATCATATTTTTATGTGTGCACTTTTTTTTTTTTTTT [GTGCAC_site9555] | 10.9 ± 0.56

Sequence | gcPBM binding intensity (ln)
CTCTTATACATATTCCTGCACTTATTTTTAAAAACA [GTGCAC_site9620] | 10.7 ± 0.43
AAGAAAAGCATAGATGCACACATATATATATATATA [CACACA_site8675] | 10.2 ± 0.49
GGAACTTAAAAAAAATGTACTTATAAAAAAGGAAAT [XGTACX_site8186] | 11.2 ± 0.86
TTACACATACATATGTGGGAAAATATTGCTACATAT [CACACA_negctrl_site463] | 10.03 ± 0.042
AACATGCAAACATGCACACAGAAAAAAAAAATATAT [CACACA_site1565] | 9.99 ± 0.19
ATCATTATATTATGGTGTACCCATATATAATTATCA [XGTACX_site551] | 11.4 ± 0.88
CATTAAACCGTGGGAGCACACACACCCACCCACCCA [CACACA_site8000] | 10.7 ± 0.36
AATTTAAAGAATTGTAGTACAATGAAATATATATAA [XGTACX_site7970] | 11.6 ± 1.1
AATACCTATGGAATTAATAATATGTGTACAGACACA [TGCATGCA_negctrl_site547] | 11.3 ± 0.96
AACAATGGATTATTCACACATAAAAAAATTCACATT [CACACA_site5437] | 9.76 ± 0.13
TATATATATATATATACACACATATATATATTTTTC [CACACA_site3983] | 10.2 ± 0.61
TGTTAAATTATTTATCAGATTATTATTTGTAAATAA [CACACA_negctrl_site1535] | 9.52 ± 0.099
TTTGAACATTTTGCAAGTACAAAAAAATAATATATC [XGTACX_site8079] | 11.1 ± 0.79
AAAAAAATATATATATGTACATAACTTTGTTGTGAT [XGTACX_site5243] | 11.1 ± 0.49
AATGTAAAACCTCCTACACACACCAATTAACTATTC [CACACA_site2112] | 10.09 ± 0.042
TACTTATCGTTAAATTGTACTAAAAAATATTTTTCT [XGTACX_site4665] | 11 ± 0.61
TAAAATTTTGTTTGTTGTACTTATTTTCGTGTCAAC [XGTACX_site8277] | 11.6 ± 1
AAAGATGAATTTTTTACACACACCATTTTATAATAT [CACACA_site3676] | 10 ± 0.11
AAAAAAAAAAAAAAAAAAAAATATATATATATATAT [GTGCAC_negctrl_site426] | 10.7 ± 0.45
AAAAGTATAATAAATTGTACTAACAAATATTTATGT [XGTACX_site7721] | 10.9 ± 0.56
TGGTATTAAGGAGAGGGTACAAAAAAAAAAAAAAAA [XGTACX_site1668] | 11.1 ± 0.87
TTATAATAAAAGGCTTTACAATTATTAAACAAATAA [GTGCAC_negctrl_site480] | 9.53 ± 0.26
AAAAAAGAAGAGCACACACACATATATAAATATAAA [CACACA_site631] | 9.98 ± 0.2

Sequence | gcPBM binding intensity (ln)
GCCATTGTACCATCCACACACATATATATCTGTATA [CACACA_site5490] | 10.9 ± 0.57
ATGGTATAAAAAAATACACACTTATATATATTCTTA [CACACA_site4427] | 9.925 ± 0.035
TTTTTTTTTTTTTCTCGTACAAAATAATACCTTTTT [XGTACX_site3867] | 10.7 ± 0.69
GTAGACATTATAATGGTGCAAAAAAATTAACAAAAA [GTGCAC_site9891] | 10.5 ± 0.54
TTCTAATATTTACATAATATATAGAAATATAAAGGT [XGTACX_negctrl_site504] | 9.99 ± 0.2
AAATATAAACTCAGCACACAAACATATATATGTCAT [CACACA_site4004] | 9.995 ± 0.078
AGGGAATATTTTTATGCATGTGCTTACACATTACAA [TGCATGCA_site830] | 10 ± 0.25
AAAAAAAACGGACACACACACATACAAAATATATAT [CACACA_site4910] | 11.2 ± 0.86
AGGAGGATATTACACAGTACCCAGTAACTCTACGGA [XGTACX_site1998] | 10.6 ± 0.36
TCAGAGTGAAGTTATACACACATGGTTTTTTTTTTT [CACACA_site2116] | 9.875 ± 0.021
AGAGAGAAAGCTATAACATGCAACAATTTTTAGAAA [TGCATGCA_site95] | 9.61 ± 0.18
AAGTATGCGTTATATACACACATACATTTATATATC [CACACA_site6207] | 9.91 ± 0.085
ATAAATAAAAAAAAAAAAAAAAAAAAAAAAAAAATA [CACACA_negctrl_site1064] | 9.56 ± 0.099
GTTGTATAAAATAATACATGCATGTCCTACATATAT [TGCATGCA_site162] | 10.9 ± 0.63
TTTTTTTTTTTAAATACATGCATGTCCTATTTAAAT [TGCATGCA_site494] | 10.4 ± 0.61
TTTTTTTGATAAAAGGTGCTACAAGATGAATACATA | 10.3 ± 0.4
TAATATATTTATAAGTGTACACATTATATAAATCCC [XGTACX_site8875] | 11.7 ± 0.74
CCGCATTTTACAGACACACACAATTTATATTACGGT [CACACA_site6974] | 10.3 ± 0.26
AGTAATAACTATATATGTACATATATATATTATTAG [XGTACX_site1113] | 11.1 ± 0.67
GTAATATATTTTTATGGTACACGAACTAGCCAAAAA [XGTACX_site6307] | 11.3 ± 0.88
TTACCTTTAAATGGATGTACAGAAATTTAAATTGTT [XGTACX_site7044] | 11.1 ± 0.73
CTTCCTTCTAAATGCACACGGAAAGTATAAATGTAT [CACACA_site2501] | 10.1 ± 0.15
TATATTATTTATTTTTGTACATATTATGAATGAATA [XGTACX_site3971] | 10.9 ± 0.42

Sequence | gcPBM binding intensity (ln)
AAAATAAATATGAACACACACATTTATGCCTTTAAA [CACACA_site1271] | 9.915 ± 0.007
TATTTGTTTTTATATAGTACATAAATATATATATAT [XGTACX_site7834] | 10.9 ± 0.61
ATTATTTATATTATGGTGCATAATTTTGGGTTTCTT | 10.06 ± 0.049
AGAGATATAAGAAAAGCACACACACCCAAAAAAAAA [CACACA_site8917] | 10.5 ± 0.45
TATATACAAAAAATATGTACATATATATATATATAT [XGTACX_site3497] | 11.3 ± 0.64
AAAAAATAAATAAATACACACACACTAATATATATA [CACACA_site8488] | 9.915 ± 0.035
CAGATAGACTTATATGCATGCATTCACATACCAACA [TGCATGCA_site163] | 9.96 ± 0.071
AACAACATTTTGTAATGTACATATTTACTTATATTC [XGTACX_site7251] | 11 ± 0.57
TATATTATTTATTAGACACACATTATTAATATATTT [CACACA_site1078] | 10 ± 0.13
TGGATTTTGTATTAATGTACATATATATATATATAT [XGTACX_site4442] | 11.1 ± 0.73
CCTCTTAATATGTGCACACTAAATTATAACATAATT [CACACA_site3259] | 10.9 ± 0.55
TGAAAAGTAAAATACACACACATAATCTAATTTATA [CACACA_site7024] | 9.87 ± 0.18
GGTTAACATAAATATATACACACCAATGATGGCATT [CACACA_site1568] | 9.84
TAGAAATATATAAATTGTACATGTTTGTATAATATA [XGTACX_site2097] | 10.8 ± 0.4
AAATAATTAGAAATAGTGCACATAATTAAGGGATAC | 10.5 ± 0.21
ATTTTTATTTACAACCCCAAAAAGGAAAAACATAAA [CACACA_negctrl_site1169] | 10.3 ± 0.36
AATATTTATACTATAACACACATACAGACAAAAAAA [CACACA_site6396] | 10.3 ± 0.28
TTACATTATATACATACACACCCACCCACAAAAAAA [CACACA_site8187] | 10.7 ± 0.47
TTTTTTTTTTTTTTTTGTACGTAAAAAAATATATAC [XGTACX_site1290] | 11.3 ± 0.93
TTGTTATATTACAGTAGTACATTTAAAATCTACTAC [XGTACX_site2620] | 11.4 ± 0.93
